According to patent US20220267409A1 (KAHR MEDICAL, published 2022):

Experiments:
[1] = target: T1, human PDL1 expressed on DLD1-PDL1 cells (human, UniProt Q9NZQ7); test: flow cytometry on DLD1-PDL1 cells against DLD1 WT cells, dilutions of supernatant, detection with anti-4-1BBL antibody
T1 construct: whole, on cells; also called CD274; DLD1 PDL1 overexpressing cell line
Method: (§1) The binding of the heterodimer to the ligand expressing cell lines was determined by immuno-staining of its 4-1BBL domain using an anti-4-1BBL antibody following incubation of the cells with the indicated heterodimer, followed by flow cytometric analysis. GMFI values are presented and were used to create a binding curve graph with a GraphPad Prism software. […] The binding of the heterodimer to the cell lines was determined by immuno-staining of its PD1 domain using an anti-PD1 antibody following incubation of the cells with the indicated heterodimer, followed by flow cytometric analysis. GMFI values are presented and were used to create a binding curve graph with a GraphPad Prism software.
Methods—Cells were incubated with serial dilutions of the produced heterodimers-containing supernatants for 20 minutes at 4° C., followed by immuno-staining with conjugated antibody against 4-1BBL and analyzed by flow cytometry. In some cases, cells underwent pre-incubation with anti CD47 blocker antibody prior to the incubation with the supernatants.

[2] = target: T2, human 4-1BB expressed on HT1080-4-1BB cells (human, UniProt Q07011 24-255); test: flow cytometry on HT1080-4-1BB cells against HT1080 WT cells, dilutions of supernatant, detection with anti-PD1 antibody
T2 construct: whole, on cells; also called HT1080 4-1BB overexpressing cells
Method: as §1
(§2) Methods—Cells were incubated with serial dilutions of the produced heterodimers-containing supernatants for 20-30 minutes at 4° C., followed by immuno-staining with an antibody against PD1 or LILRB2 and analyzed by flow cytometry. In some cases, cells underwent pre-incubation with anti CD47 blocker antibody or anti-4-1BB blocker antibody prior to the incubation with the supernatants.

[3] = target: T3, human recombinant PDL1 (GenScript) (human, UniProt Q9NZQ7 in part, limits assumed); test: sandwich ELISA: PDL1-coated plate, dilutions of supernatant, detection with biotinylated 4-1BB and streptavidin-HRP
T3 construct: Coated on ELISA plates; also called PDL1 protein; PDL1 coated plate
Method: (§3) Supernatants containing the heterodimers or control supernatant (from non-transfected Expi293F cells) were incubated in PDL1 or CD47 pre-coated 96 wells plate or a mix of both proteins at equal-molar quantity. Following incubation, detection was effected with biotinylated 4-1BBL. […] Detection was effected with a TMB substrate according to standard ELISA protocol using a Plate reader (Thermo Scientific, Multiscan FC) at 450 nm, with reference at 540 nm.
(§4) Methods—Ninety-six-wells plates were pre-coated by incubating overnight at 4° C. with a recombinant CD47 protein, PDL1 protein, HLA-G protein or a mix of two proteins at equal-molar quantity. Following blocking and washing, serially diluted supernatant containing the produced PD1-4-3xsc1BBL, SIRPα-PD1-3xsc4-1BBL, 2xLILRB2-3xsc4-1BBL or LILRB2-SIRPα-3xsc4-1BBL heterodimers were added to the relevant pre-coated wells. Following an additional washing step, biotinylated 4-1BB or rabbit anti-anti-SIRPα antibody was added and allowed to bind to the 4-1BBL arm or SIRPα arm, respectively, of the heterodimer. The plates were washed again and streptavidin-HRP or goat anti-rabbit IgG antibody-HRP was added. Detection was effected with a TMB substrate according to standard ELISA protocol using a plate reader (Thermo Scientific, Multiscan FC).

[4] = target: T4, biotin-conjugated human recombinant 4-1BB protein (GenScript) (human, UniProt Q07011 24-186, biotin-conjugated); test: as above
T4 construct: Detection reagent of the sandwich ELISA; also called biotinylated 4-1BB; 41BB-biotin
Method: as §3, §4

[5] = target: T4, biotin-conjugated human recombinant …; test: sandwich ELISA: HLA-G-coated plate, dilutions of supernatant, detection with 41BB-biotin and streptavidin-HRP
Method: Supernatants containing the heterodimer TSP214 or control supernatant (FIG. 28A) or purified TSP215 heterodimer (FIGS. 28B-C) were incubated in HLA-G, CD47 or BSA pre-coated 96-wells plates. Binding was detected by incubation with 41BB-biotin, followed by streptavidin-HRP and TMB substrate according to standard ELISA protocol using a plate reader at 450 nm, with reference at 620 nm.
as §4

[6] = target: T2, human 4-1BB expressed on HT1080-4-1BB …; test: flow cytometry on HT1080-4-1BB cells, dilutions of supernatant, detection with anti-LILRB2 antibody
Method: The binding of the heterodimer to the receptor expressing cell line was determined following incubation of the cells with the heterodimer by immuno-staining of its LILRB2 domain using an anti-LILRB2 antibody, followed by flow cytometric analysis.
as §2

Measured: binding result

B1: PD1-Fc-3xSc4-1BBL heterodimer DSP305 (SEQ ID NOs: 79 and 81) (Fc fusion)
chain 1: DSPDRPWNPPTFSPALLVVTEGDNATFTCSFSNTSESFVLNWYRMSPSNQTDKLAAFPEDRSQPGQDSRFRVTQLPNGRDFHMSVVRARRNDSGTYLCGAISLAPKAQIKESLRAELRVTERRAEVPTAHPSPSPRPAGQGGGGSGGGGSESKYGPPCPPCPAPEFEGGPSVFLFPPKPKDTLMISRTPEVTCVVVDVSQEDPEVQFNWYVDGVEVHNAKTKPREEQFNSTYRVVSVLTVLHQDWLNGKEYKCKVSNKGLPSSIEKTISKAKGQPREPQVYTLPPSQCEMTKNQVSLSCAVKGFYPSDIAVEWESNGQPENNYKTTPPVLDSDGSFFLVSRLTVDKSRWQEGNVFSCSVMHEALHNHYTQKSLSLSLGKGGGGSGGGGSAASPRLREGPELSPDDPAGLLDLRQGMFAQLVAQNVLLIDGPLSWYSDPGLAGVSLTGGLSYKEDTKELVVAKAGVYYVFFQLELRRVVAGEGSGSVSLALHLQPLRSAAGAAALALTVDLPPASSEARNSAFGFQGRLLHLSAGQRLGVHLHTEARARHAWQLTQGATVLGLFRVTPEIPAGLPSPRSEGGGGSGGGGSGGGGSAASPRLREGPELSPDDPAGLLDLRQGMFAQLVAQNVLLIDGPLSWYSDPGLAGVSLTGGLSYKEDTKELVVAKAGVYYVFFQLELRRVVAGEGSGSVSLALHLQPLRSAAGAAALALTVDLPPASSEARNSAFGFQGRLLHLSAGQRLGVHLHTEARARHAWQLTQGATVLGLFRVTPEIPAGLPSPRSEGGGGSGGGGSGGGGSAASPRLREGPELSPDDPAGLLDLRQGMFAQLVAQNVLLIDGPLSWYSDPGLAGVSLTGGLSYKEDTKELVVAKAGVYYVFFQLELRRVVAGEGSGSVSLALHLQPLRSAAGAAALALTVDLPPASSEARNSAFGFQGRLLHLSAGQRLGVHLHTEARARHAWQLTQGATVLGLFRVTPEIPAGLPSPRSE
chain 2: DSPDRPWNPPTFSPALLVVTEGDNATFTCSFSNTSESFVLNWYRMSPSNQTDKLAAFPEDRSQPGQDSRFRVTQLPNGRDFHMSVVRARRNDSGTYLCGAISLAPKAQIKESLRAELRVTERRAEVPTAHPSPSPRPAGQGGGGSGGGGS[human IgG4 Fc with S228P L235E Y349C T366W (EU numbers) omitted here]
notes: Knob-into-hole hIgG4 Fc heterodimer made in Expi293F cells; tested as culture supernatant; also called PD1-sc3x4-1BBL heterodimer; PD1-4-3xsc1BBL
binds: [1] | [2] | [3] | [4]

B2: heterodimer DSP214 (SEQ ID NOs: 138 and 142) (Fc fusion)
chain 1: QTGTIPKPTLWAEPDSVITQGSPVTLSCQGSLEAQEYRLYREKKSASWITRIRPELVKNGQFHIPSITWEHTGRYGCQYYSRARWSELSDPLVLVMTGAYPKPTLSAQPSPVVTSGGRVTLQCESQVAFGGFILCKEGEEEHPQCLNSQPHARGSSRAIFSVGPVSPNRRWSHRCYGYDLNSPYVWSSPSDLLELLVPGVSKKPSLSVQPGPVVAPGESLTLQCVSDVGYDRFVLYKEGERDLRQLPGRQPQAGLSQANFTLGPVSRSYGGQYRCYGAHNLSSECSAPSDPLDILITGQIRGTPFISVQPGPTVASGENVTLLCQSWRQFHTFLLTKAGAADAPLRLRSIHEYPKYQAEFPMSPVTSAHAGTYRCYGSLNSDPYLLSHPSEPLELVVSGGGGSGGGGSGGGGS[human IgG4 Fc with S228P L235E Y349C T366W (EU numbers) omitted here]
chain 2: QTGTIPKPTLWAEPDSVITQGSPVTLSCQGSLEAQEYRLYREKKSASWITRIRPELVKNGQFHIPSITWEHTGRYGCQYYSRARWSELSDPLVLVMTGAYPKPTLSAQPSPVVTSGGRVTLQCESQVAFGGFILCKEGEEEHPQCLNSQPHARGSSRAIFSVGPVSPNRRWSHRCYGYDLNSPYVWSSPSDLLELLVPGVSKKPSLSVQPGPVVAPGESLTLQCVSDVGYDRFVLYKEGERDLRQLPGRQPQAGLSQANFTLGPVSRSYGGQYRCYGAHNLSSECSAPSDPLDILITGQIRGTPFISVQPGPTVASGENVTLLCQSWRQFHTFLLTKAGAADAPLRLRSIHEYPKYQAEFPMSPVTSAHAGTYRCYGSLNSDPYLLSHPSEPLELVVSGGGGSGGGGSGGGGSESKYGPPCPPCPAPEFEGGPSVFLFPPKPKDTLMISRTPEVTCVVVDVSQEDPEVQFNWYVDGVEVHNAKTKPREEQFNSTYRVVSVLTVLHQDWLNGKEYKCKVSNKGLPSSIEKTISKAKGQPREPQVYTLPPSQCEMTKNQVSLSCAVKGFYPSDIAVEWESNGQPENNYKTTPPVLDSDGSFFLVSRLTVDKSRWQEGNVFSCSVMHEALHNHYTQKSLSLSLGKGGGGSGGGGSAASPRLREGPELSPDDPAGLLDLRQGMFAQLVAQNVLLIDGPLSWYSDPGLAGVSLTGGLSYKEDTKELVVAKAGVYYVFFQLELRRVVAGEGSGSVSLALHLQPLRSAAGAAALALTVDLPPASSEARNSAFGFQGRLLHLSAGQRLGVHLHTEARARHAWQLTQGATVLGLFRVTPEIPAGLPSPRSEGGGGSGGGGSGGGGSAASPRLREGPELSPDDPAGLLDLRQGMFAQLVAQNVLLIDGPLSWYSDPGLAGVSLTGGLSYKEDTKELVVAKAGVYYVFFQLELRRVVAGEGSGSVSLALHLQPLRSAAGAAALALTVDLPPASSEARNSAFGFQGRLLHLSAGQRLGVHLHTEARARHAWQLTQGATVLGLFRVTPEIPAGLPSPRSEGGGGSGGGGSGGGGSAASPRLREGPELSPDDPAGLLDLRQGMFAQLVAQNVLLIDGPLSWYSDPGLAGVSLTGGLSYKEDTKELVVAKAGVYYVFFQLELRRVVAGEGSGSVSLALHLQPLRSAAGAAALALTVDLPPASSEARNSAFGFQGRLLHLSAGQRLGVHLHTEARARHAWQLTQGATVLGLFRVTPEIPAGLPSPRSE
notes: Made in Expi293F cells; tested as culture supernatant; also called TSP214; 2xLILRB2-3xsc4-1BBL
binds: [5] | [6]
